Laboratory results reported in PubChem BioAssay AID1346428 (National Center for Advancing Translational Sciences (NCATS), 2018).
The whole screen tested about 48,000 compounds, of which about 1,200 (2.5%) were called active. Inconclusive results (about 2%) are left out.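 Rule for the calls: active = activation of at least 60% and not above a set upper limit (about 1 call in 100 departs from these limits); inconclusive = activation of 40% to 60%, or above that upper limit; inactive = activation under 40%.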 The list shows a part of the results.
Note: 0% is about no effect.

Each compound was assayed against Probable G-protein coupled receptor 32 (Homo sapiens) (UniProt O75388) (assay: qHTS for Agonists of Human Resolvin D1 Receptor DRV1). Conditions: CHO-K1 GPR32 beta-arrestin PathHunter luminescence, 90 min; at 76.9 µM; hits give high values; zero percent set by DMSO-only wells.
UniProt O75388, sequence (O75388 whole entry, looked up, the tested form may be a part): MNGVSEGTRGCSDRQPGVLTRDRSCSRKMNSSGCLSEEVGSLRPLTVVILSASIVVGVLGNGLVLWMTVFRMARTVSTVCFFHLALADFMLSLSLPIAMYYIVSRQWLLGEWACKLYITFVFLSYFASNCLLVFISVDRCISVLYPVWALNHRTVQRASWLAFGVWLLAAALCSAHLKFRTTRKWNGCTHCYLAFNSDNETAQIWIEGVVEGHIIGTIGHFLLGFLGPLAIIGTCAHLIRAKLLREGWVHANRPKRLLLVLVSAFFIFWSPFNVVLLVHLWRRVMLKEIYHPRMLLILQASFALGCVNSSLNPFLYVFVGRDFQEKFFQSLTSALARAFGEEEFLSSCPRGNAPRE
Method in brief: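 Agonism was scored as beta-arrestin recruitment to ProLink-fused GPR32 in stably transfected CHO-K1 cells, giving a chemiluminescent beta-Gal signal; compounds were incubated 90 min at 37 °C.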
With `CCOc1ccc(CNC(=O)C2CCN(C(=O)c3sccc3-n3cccc3)CC2)cc1` the activation was inactive: -26.4%. With `Cc1ccc(-n2c(SCCC(C)C)nc3sc4c(c3c2=O)CC(C)(C)OC4)cc1` the activation was inactive: -7.15%. In the case of `COc1ccc(S(=O)(=O)Nc2cccc(-c3ccc(N4CCCC4)nn3)c2)cc1OC`, the activation is reported as inactive: 26.5%. For `O=C(Nc1cccc(C(F)(F)F)c1)Nc1nnc(N2CCCCC2)s1`, the activation was inactive: -6.83%. For `Clc1ccc(CNc2cc(-c3ccccc3)nc3nncn23)cc1`, the activation was inactive: 0%. For `CCCNC(=O)Cn1nc(-c2ccc(C)c(C)c2)c2cnc3ccc(F)cc3c21`, the activation was inactive: 10.8%. `Cc1ccc(C)c(CN2C(=O)CSc3ccc(C(=O)NCCc4ccc(Cl)cc4)cc32)c1` was tested, and the activation was inactive: 10%. In the case of `CCN(c1ccccc1)S(=O)(=O)c1ccc2[nH]cc(C(=O)NCc3ccc(C)cc3)c(=O)c2c1`, the activation is reported as active: 62.8%. With `N#Cc1c(Nc2cccc(F)c2)sc(C(=O)c2ccc(Cl)cc2)c1N` the activation was inactive: -8.01%. In the case of `COc1ccc(N2CC(NC(=O)c3ccc(OC(C)C)cc3)CC2=O)cc1` (centres undefined), the activation is reported as inactive: -9.67%. `Cc1c(-c2ccc(Cl)cc2)c(=O)oc2c(CN3CCCC3)c(O)ccc12` was tested, and the activation was inactive: 5.42%. For `Cc1cc(C)nc(NS(=O)(=O)c2ccc(N)cc2)n1`, the activation was inactive: 12.2%. With `Cc1ccc(OCC(=O)Nc2ccc3nc(Nc4cccc(Cl)c4)cc(C)c3c2)cc1` the activation was inactive: 1.86%. In the case of `COc1ccc(-c2nc3sc(CCNS(=O)(=O)c4ccc(F)c(C)c4)c(C)n3n2)cc1`, the activation is reported as inactive: 6.36%. For `COc1ccccc1CNC(=O)CN1C(=O)CCn2nc(-c3ccccc3)cc21`, the activation was inactive: -6.25%. `COc1ccc(N(C(=O)COc2ccccc2OC)S(=O)(=O)c2ccc(Cl)cc2)cc1` was tested, and the activation was inactive: 10.5%. In the case of `COc1cc(NS(=O)(=O)c2ccc(N)cc2)ncn1`, the activation is reported as inactive: -1.76%. For `O=C(c1ccccc1)n1nc(-c2ccco2)nc1NCc1ccccc1Cl`, the activation was inactive: -1.32%. With `CCc1ccccc1NC(=O)Nc1cc(C(=O)NCc2ccc(OC)cc2)ccc1N1CCCC1` the activation was inactive: -17%. With `Cc1noc(C)c1S(=O)(=O)N1CCCC(C(=O)Nc2ccc(C(C)C)cc2)C1` (centres undefined) the activation was inactive: -2.16%. `COc1cccc(-n2cc(C(=O)Nc3cc(C)c(Cl)cc3OC)c3ccccc3c2=O)c1` was tested, and the activation was inactive: -20.8%. For `CCOc1ccc(CCNC(=O)C2CCC(CNS(=O)(=O)c3ccc(Cl)cc3)CC2)cc1OCC` (centres undefined), the activation was inactive: 44.9%. With `CC1(C)O[C@@H]2C[C@H]3[C@@H]4C[C@H](F)C5=CC(=O)C=C[C@]5(C)[C@@]4(F)[C@@H](O)C[C@]3(C)[C@]2(C(=O)CO)O1` the activation was inactive: 0.637%. With `CCOCCCNC(=O)c1cc2c(=O)[nH]c3ccccc3c2n1C` the activation was inactive: 3.59%. With `CCOc1ccc(CNC(=O)C2CCN(c3nn4c(=O)cc(C)nc4s3)CC2)cc1` the activation was inactive: -12.7%. In the case of `Cc1cccc(Cn2cc(C(=O)Nc3ccc(S(N)(=O)=O)cc3)ccc2=O)c1`, the activation is reported as inactive: 45.2%. In the case of `O=C(C1CCN(S(=O)(=O)Cc2ccccc2)CC1)N1CCN(c2ccccc2F)CC1`, the activation is reported as inactive: 2.24%. `CCc1ccccc1NC(=O)C(C)n1nc(-c2ccc(C)c(C)c2)ccc1=O` (centres undefined) was tested, and the activation was inactive: 5.97%. With `Cc1ccc(C)c(Nc2nc3nonc3nc2Nc2cccc(C)c2C)c1` the activation was inactive: -8.15%. For `COc1ccc(Cl)cc1NC(=O)N1CCC(CN2CCCCCC2)CC1`, the activation was inactive: -14.7%. For `CCCn1c2ccccc2c2cnn(CC(=O)NCc3cc(OC)ccc3OC)c(=O)c21`, the activation was inactive: -12.8%. In the case of `CC1=C(C(=O)OCC2CCCCC2)C(c2ccc(Cl)cc2Cl)CC(=O)N1` (centres undefined), the activation is reported as inactive: -1.48%. In the case of `CSc1cccc(NC(=O)Cn2cnc(S(=O)(=O)N3CCCC3)c2)c1`, the activation is reported as inactive: 13.2%. `O=C(Nc1ccccc1OCc1cc(=O)n2ccccc2n1)c1ccccc1F` was tested, and the activation was inactive: -7.94%. With `CCCCNC(=O)CN1C(=O)COc2ccc(S(=O)(=O)N3CCCC3)cc21` the activation was inactive: -11.4%. `COc1ccc(CNC(=O)CN2C(=O)CSc3ccc(S(=O)(=O)N4CCCC4)cc32)cc1` was tested, and the activation was inactive: -19.4%. `CCOC(=O)c1cccc(NC(=O)C(Cc2ccccc2)NS(=O)(=O)c2cccc3nsnc23)c1` (centres undefined) was tested, and the activation was inactive: -21.2%. `COC(=O)c1ccc(Cn2nnc3sc4c(c3c2=O)CCCC4)cc1` was tested, and the activation was inactive: -10.6%. `COc1cc2nc(Nc3ccc(F)cc3)nc(N)c2cc1OC` was tested, and the activation was inactive: 22.4%. `CCc1ccccc1OCCSc1nnc(-c2cc(OC)c(OC)c(OC)c2)o1` was tested, and the activation was inactive: 8.3%. For `COc1ccc(CNC(=O)C(=O)NCC(c2ccco2)S(=O)(=O)c2ccc(C)cc2)cc1` (centres undefined), the activation was inactive: -14.3%. `COC(=O)N/N=C/c1c[n+]([O-])c2ccccc2[n+]1[O-]` was tested, and the activation was inactive: -3.42%. In the case of `COc1ccc(NC(=O)CN(C)S(=O)(=O)c2cccc3nsnc23)cc1`, the activation is reported as inactive: -6.29%. In the case of `Cc1cc(S(=O)(=O)NCC(c2ccc(N(C)C)cc2)N2CCOCC2)ccc1F` (centres undefined), the activation is reported as inactive: -21.6%. For `O=C(CSC1=Nc2ccccc2N=C(c2ccc(F)cc2)C1)NCc1ccc(Cl)cc1`, the activation was inactive: -26.8%. For `CCN(CC)c1ccc(NC(=O)c2cc3c(=O)n4cccc(C)c4nc3n2C)c(C)c1`, the activation was inactive: -1.18%. `CCCCCNC(=O)CCn1c(=O)[nH]c2ccccc2c1=O` was tested, and the activation was inactive: -7.35%. In the case of `CC(=O)c1ccc(NC(=O)c2nc3ccccc3n(C)c2=O)cc1`, the activation is reported as inactive: 5.2%. In the case of `CCn1nc(C)c2c(-c3ccccc3)cc(=O)n(C(C)C(=O)NCc3ccc(C)cc3)c21` (centres undefined), the activation is reported as inactive: -2.55%. `CN(C(=O)CN(CCO)CC(=O)N(C)C(C)(C)Cc1ccccc1)C(C)(C)Cc1ccccc1` was tested, and the activation was inactive: 8.39%. With `COc1ccc(/C=C/c2nc3ccccc3c(=O)n2-c2cccc(C(F)(F)F)c2)cc1` the activation was inactive: -11.1%. `Cc1[nH]c(=O)[nH]c(=O)c1S(=O)(=O)N1CCN(c2cccc(Cl)c2)CC1` was tested, and the activation was inactive: 9.31%. `Cc1ccc(CN(C(=O)COc2ccc(Cl)cc2Cl)C2CCS(=O)(=O)C2)o1` (centres undefined) was tested, and the activation was inactive: -23.6%. With `COc1ccc(S(=O)(=O)c2nnn(-c3ccc(C)c(Cl)c3)c2C)cc1` the activation was inactive: -1.54%. `Cc1cc(C)cc(NC(=O)C2CCN(S(=O)(=O)c3cccc(-c4noc(C)n4)c3)CC2)c1` was tested, and the activation was inactive: -0.107%. With `Cc1ccc(CNC(=O)CCCN2C(=O)COc3ccc(C)cc32)cc1` the activation was inactive: -2.08%. With `Fc1ccc(Br)cc1C1C=C(c2ccc(Br)cc2)Nc2nnnn21` (centres undefined) the activation was inactive: -41.3%. In the case of `CC1=Nc2cc(C(=O)NC(C)C)ccc2Sc2ccc(C)cc21`, the activation is reported as inactive: 2.2%. With `O=C(CC1N=C2c3ccccc3N=C(SCC(=O)Nc3ccccc3F)N2C1=O)NCc1cccs1` (centres undefined) the activation was inactive: -17.1%. With `Cc1cccc(NC(=O)C(=O)NCCc2csc(-c3ccc(C(F)(F)F)cc3)n2)c1C` the activation was inactive: -14.7%. In the case of `Cc1ccc2sc(N(Cc3cccnc3)C(=O)C3COc4ccccc4O3)nc2c1C` (centres undefined), the activation is reported as inactive: -1.73%. For `CC1CCc2c(sc(NC(=O)c3cc(-c4ccc(F)cc4)on3)c2C(N)=O)C1` (centres undefined), the activation was inactive: -1.75%. `Cc1ccc(NC(=O)c2c(NC(=O)c3ccccc3)sc3c2CCC3)cc1` was tested, and the activation was inactive: -4.56%. For `CCc1ccc(CN(C(=O)c2cc(=O)c3ccc(C)cc3o2)C2CCS(=O)(=O)C2)cc1` (centres undefined), the activation was inactive: -16.8%. In the case of `CCN(CC)CCNC(=O)c1ccc(-n2c(-c3ccccc3)cc3c2CCCC3)cc1`, the activation is reported as inactive: -22.1%. In the case of `COc1cccc(CNC(=O)CCCn2nc(C)c3c(C)n(-c4ccc(C)cc4)nc3c2=O)c1OC`, the activation is reported as inactive: -11.4%. With `CC(C)Cn1c(=O)c2sccc2n2c(CCCC(=O)NC3CCCCC3)nnc12` the activation was inactive: -7.87%. In the case of `COc1cc(C2C(C(=O)Nc3ccccc3)=C(C)Nc3nnnn32)cc(OC)c1OC` (centres undefined), the activation is reported as inactive: 9.15%. In the case of `COc1ccc(-c2noc(CN(C(=O)c3cc(OC)c(OC)cc3OC)C(C)C)n2)cc1`, the activation is reported as inactive: 1.25%. For `O=C(NC1CC(=O)N(c2ccc(Cl)cc2)C1)c1ccc(S(=O)(=O)N2CCOCC2)cc1` (centres undefined), the activation was inactive: -0.928%. With `COc1ccc(-c2noc(CSc3nc(N)cc(=O)[nH]3)n2)cc1OC` the activation was inactive: 16.3%. In the case of `CCOC(=O)c1ccc(NC(=O)c2nc(SCc3ccccc3F)ncc2Cl)cc1`, the activation is reported as inactive: -27.8%. `CCCCOC(=O)c1ccc(Nc2nnc(-n3nc(C)cc3C)c3ccccc23)cc1` was tested, and the activation was inactive: -12.5%. For `Cc1nnc2c3ccccc3nc(Nc3cccc(O)c3)n12`, the activation was inactive: -12.4%. In the case of `Cc1ccc(Cl)cc1NC(=O)C1CCN(c2nc3ccccc3n3cccc23)CC1`, the activation is reported as inactive: -11.9%. In the case of `CCCn1c2ccccc2c2cnn(CC(=O)NCCc3ccc(C)cc3)c(=O)c21`, the activation is reported as inactive: 22.1%. In the case of `CCOc1ccc2nc(N3CCCC(C(=O)NCc4ccccc4OC)C3)sc2c1` (centres undefined), the activation is reported as inactive: -5.46%. `Cc1ccc(/C=C/c2onc(C)c2S(=O)(=O)N2CCC(C(=O)Nc3cc(F)ccc3F)CC2)cc1` was tested, and the activation was inactive: -4.31%. For `CCOc1ccc(S(=O)(=O)Nc2cc(Cl)ccc2OC)c2cccnc12`, the activation was inactive: 3.65%. With `COC(=O)C1=CO[C@@H](O)[C@@H]2C(CO)=CC[C@H]12` the activation was inactive: -7.9%. In the case of `Cc1cc(C)c2oc(C(=O)Nc3ccc(S(=O)(=O)Nc4nccc(C)n4)cc3)cc(=O)c2c1`, the activation is reported as inactive: -5.75%. `CCc1nn(CC(=O)NCCCOC)c(=O)c2cc3ccccc3n12` was tested, and the activation was inactive: 1.13%. `Cc1ccc(CN2CCCn3nc(C(=O)NCC(C)c4ccccc4)cc3C2=O)cc1` (centres undefined) was tested, and the activation was inactive: 5.75%. With `CC(=O)Nc1ccn(C2COC(COC(=O)c3ccccc3)O2)c(=O)n1` (centres undefined) the activation was inactive: -0.917%.
